Measured values taken from PubChem BioAssay AID1347434 (National Center for Advancing Translational Sciences (NCATS), 2020).
Screen size: about 1,200 compounds; about 30 (2%) were called active. Not shown: some 23% with an inconclusive outcome. The call rests on the fitted dose curve; in most records, active means well fitted inhibition curve with a large enough effect; inconclusive means small, poorly fitted or top-dose-only effect; inactive means flat fitted curve, though single readings scatter. The list shows a part of the results.

Biological target: Single-stranded DNA cytosine deaminase (Homo sapiens) (UniProt Q9GZX7)
Assay: Confirmatory qHTS assay for inhibitors of Activation Induced Cytidine Deaminase (AID): AID signals
Settings: recombinant AID, FRET deamination/UDG coupled fluorescence, 4 h; series mostly up to 115 µM; activity, negative = inhibition: at the top concentration
Summary of the method: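 Read 1 (AID) was measured at 540 ex/590 em after a 30 min NaOH step. The reaction was AID (1 uM, 4/3x stock) with UDG, compound at final 7.32 nM - 114 uM for 10 min, then DJC20/DJC23 substrate for 4 hr at room temperature. A UDG read at 560/665 serves as counterscreen.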
On the % scale 0 is the no-effect control and ±100 the full control effect.

Chain of UniProt Q9GZX7 (Q9GZX7 whole entry, looked up): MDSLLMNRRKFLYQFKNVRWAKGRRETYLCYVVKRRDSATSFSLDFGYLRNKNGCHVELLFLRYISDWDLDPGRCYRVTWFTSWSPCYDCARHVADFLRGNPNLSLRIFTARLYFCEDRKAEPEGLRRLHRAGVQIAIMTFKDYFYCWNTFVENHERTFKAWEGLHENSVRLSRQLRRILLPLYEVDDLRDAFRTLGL

Compound	activity, negative = inhibition
COCCc1nn2c(=O)cc(COC(=O)c3ccc(C(C)(C)C)cc3)nc2s1	inactive: -10.1%
O=C(c1ccc2c(Cl)c3c(nc2c1)CCCC3)N1CCN(c2cccc(Cl)c2)CC1	inactive: -13%
COc1ccc(CCNC(=O)CS(=O)Cc2nc(-c3ccc(C)cc3)oc2C)c(OC)c1 (centres undefined)	inactive: 4.89%
CCOC(=O)c1cc(-c2ccc(C)cc2)n(CCC(=O)Nc2ccc(OC)c(OC)c2)c1C	inactive: -0.56%
Cc1cccc(NC(=O)CCn2nc(-c3ccccc3)c3ccccc3c2=O)c1	inactive: -19.9%
CCc1nn2c(=O)cc(COC(=O)C(c3ccccc3)c3ccccc3)nc2s1	inactive: -2.37%
Fc1ccc(CNc2nc(-c3ccccc3)cc(C(F)(F)F)n2)cc1	inactive: -14.2%
Cc1ccc(Cl)cc1N1CCN(C(=O)c2ccc(C)c(-n3c(C)nc4cccnc43)c2)CC1	inactive: -6.99%
CCc1nc2ccc(C(=O)N3CCN(c4ccc(Cl)cc4)CC3)cc2nc1CC	inactive: -22.4%
Cc1ccccc1CN1C(=O)c2ccccc2Sc2ccc(C(=O)O)cc21	inactive: -11.3%
CCOC(=O)c1ccc(NC(=O)CC2Nc3cccc4cccc(c34)NC2=O)cc1 (centres undefined)	inactive: -7.25%
CCOc1ccccc1NC(=O)Nc1ccc2nc(N3CCN(C)CC3)cc(C)c2c1	inactive: -0.364%
CCOc1ccc(Nc2sc(C(=O)c3ccc(F)cc3)c(N)c2S(=O)(=O)c2ccc(C)cc2)cc1	inactive: 11.9%
Cc1cccc(NC(=O)CC2Nc3cccc4cccc(c34)NC2=O)c1 (centres undefined)	inactive: -9.51%
Cc1nc2nc(SCC(=O)N(C)Cc3ccccc3)nn2c(C)c1Cc1ccccc1Cl	inactive: -17.7%
COc1ccc2c(c1)Cc1sc(NC(=O)c3ccccc3C)nc1-2	inactive: 60.4%
CCCCOc1ccc(C(=O)NCC(c2ccc(Cl)cc2)N2CCOCC2)cc1 (centres undefined)	inactive: -2.89%
CCN1CCN(c2cc(C)c3cc(NC(=O)/C=C/c4cccc(Cl)c4)ccc3n2)CC1	inactive: -16.3%
COc1ccc(CCNC(=O)c2nn(C)c3c2CSc2ccccc2-3)cc1OC	inactive: -13%
COc1cccc(C2CC(=O)N3CN(C4CCCCC4)CSC3=C2C#N)c1 (centres undefined)	inactive: 3.35%
COc1cccc(-n2c(SCC(=O)Nc3cccc(C)c3)nc3c([nH]c4ccccc43)c2=O)c1	inactive: -10.8%
CCC1CCCCN1CCCNC(=O)c1cn(CC)c2ccc(S(=O)(=O)N(C)C3CCCCC3)cc2c1=O (centres undefined)	inactive: -18%
O=C(CN(c1ccc(Cl)c(C(F)(F)F)c1)S(=O)(=O)c1ccccc1)Nc1cccnc1	inactive: 1.91%
CCOC(=O)c1cnc2ccc(C)cc2c1Nc1ccc(N(CC)CC)cc1	inactive: -28.1%

Compound	activity, negative = inhibition
Cc1ccc(NCc2nc3ccccc3n2CCOc2ccccc2C)cc1	inactive: 9.26%
Cc1cc(Nc2cccc(F)c2)n2nc(-c3ccco3)nc2n1	inactive: 7.61%
O=C(NCCc1ccccc1)c1ccc2c(c1)CCN2S(=O)(=O)c1ccccc1	inactive: -3.44%
Cc1cc(C)c2c(CC(=O)N(Cc3ccc(Cl)cc3)Cc3ccco3)coc2c1	inactive: -3.99%
Cc1ccc(NC(=O)Cn2nc(Cc3ccncc3)c3ccccc3c2=O)c(Cl)c1	inactive: -1.39%
Cc1cc(Nc2cccc(C(F)(F)F)c2)nc2ccc(NC(=O)c3cccc(Cl)c3)cc12	inactive: -4.6%
Cn1nnnc1SCCNCc1cc(Br)ccc1OCc1ccccc1Cl	inactive: -9.06%
CC(C)(C)c1ccc(OCC(=O)NCC2(N3CCOCC3)CCCCC2)cc1	inactive: -8.96%
CCc1ccc(NC(=O)CSc2nc(-c3cccc(OC)c3)nc3c2Cc2c(CO)cnc(C)c2O3)cc1	inactive: -11.1%
CCCCN(CC)C(=O)c1nn(-c2ccc(OC)cc2)c(=O)c2c1c1ccccc1n2C	inactive: -2.89%
COc1ccc(OC)c(CNC(=O)c2nn(C)c3c2CS(=O)(=O)c2ccccc2-3)c1	inactive: 3.75%
Cc1ccc(C)c(CSc2cn(CCNC(=O)c3cccs3)c3ccccc23)c1	inactive: 8.5%
CCCn1cc(S(=O)(=O)c2ccccc2)c(=O)c2cc(F)c(N3CCCCCC3)cc21	inactive: -13.5%
CCOc1ccc(-n2c(C)nc3cc(C(=O)NCc4ccc(C)cc4)ccc32)cc1	inactive: -14.6%
COc1ccccc1Nc1c2c(nc3ccc(NC(=O)c4ccc(OC)c(OC)c4)cc13)CCCC2	inactive: -12.8%
CCOc1ccccc1C(=O)Oc1c(S(=O)(=O)c2ccc(C)cc2)c(C)nn1-c1ccccc1	inactive: -21.8%
CCCCn1cc(S(=O)(=O)c2ccccc2)c(=O)c2cc(F)c(N3CCN(CCC)CC3)cc21	inactive: -8.83%
COc1ccc(C(CNC(=O)COc2cc(C)cc(C)c2)N2CCCCC2)cc1 (centres undefined)	inactive: 1.26%
COc1ccc(-c2noc(CSc3nnc(-c4ccccc4)n3-c3ccc(F)cc3)n2)c(OC)c1	inactive: -12.2%
CCCn1c(SCc2nc(-c3cc(OC)ccc3OC)no2)nnc1-c1ccc(Cl)cc1	inactive: -13.3%
CCc1ccc(CN(Cc2ccco2)C(=O)c2ccc(OC)cc2)cc1	inactive: -19.1%
CCCn1c(SCc2nc(-c3ccc(OC)cc3OC)no2)nnc1-c1ccc(Cl)cc1	inactive: -22.8%
O=S(=O)(NCCc1nnc2ccc(SCc3ccc(Cl)cc3Cl)nn12)c1ccccc1	inactive: -20.5%
Cc1ccc(C)c(Nc2nn3c(=O)c4ccc(C(=O)NCc5cccs5)cc4nc3s2)c1	inactive: -12.7%

Compound	activity, negative = inhibition
CCCN(CCC)CCCNC(=O)c1cn(CC)c2ccc(S(=O)(=O)N3CCc4ccccc4C3)cc2c1=O	inactive: -24.5%
O=C(Cc1ccccc1F)N1CCC(c2nc3c(nnn3Cc3cccc(Cl)c3)c(=O)[nH]2)CC1	inactive: -11.7%
COc1ccc(-n2cc(-c3ccccc3)c3c(NCCc4ccc(OC)c(OC)c4)ncnc32)cc1	inactive: -4.44%
CCOc1ccc(-c2noc(CSc3nnc(Cc4ccccc4)n3-c3cccc(C)c3)n2)cc1	inactive: -14.8%
CCc1ccc(Nc2nc(N)nc(CSc3nc4ccccc4s3)n2)cc1	inactive: -10.8%
O=C(NCCC1=CCCCC1)c1ccc2c(c1)ncn2-c1ccc(F)c(F)c1	inactive: -12.5%
Cc1ccc(N(Cc2cccs2)C(=O)c2ccc(Br)o2)cc1	inactive: -11%
CSc1ccc2c(c1)C(N1CCN(C)CC1)Cc1ccccc1S2 (centres undefined)	inactive: -12.8%
Cc1cccc(N2CCN(C(=O)C3CCN(c4ncnc5c4nc4n5CCCCC4)CC3)CC2)c1C	inactive: -17.9%
Cc1cccc(Cn2c(=O)n3nc(-c4ccccc4)nc3c3ccccc32)c1	inactive: -4.38%
COc1cc2c(cc1OC)C(COc1ccc(C(C)C)cc1)N(C(=O)COc1ccccc1)CC2 (centres undefined)	inactive: 2.86%
Cc1ccccc1OCC(=O)N(Cc1ccc(C(C)C)cc1)C1CCS(=O)(=O)C1 (centres undefined)	inactive: -6.16%
CCc1ccc(NC(=O)CSc2nc(=O)n(Cc3ccco3)c3c2CCC3)cc1	inactive: -16.1%
CCOC(=O)c1c(C)oc2nc(C)nc(NC(C)c3ccccc3)c12 (centres undefined)	inactive: 8.51%
Cn1c(SCc2ccc(F)cc2)nc2ccc(C(=O)NCc3ccc(F)cc3)cc21	inactive: -11.1%
CCOc1ccccc1NC(=O)CSc1nccn1-c1ccc(Cl)cc1	inactive: -6.02%
CCOc1ccc(CNC(=O)c2c(C)nn(-c3ccc(F)cc3)c2-n2cccc2)cc1	inactive: -6.04%
COc1ccc(C(=O)c2cn(Cc3ccc(F)cc3)c3ccc(C)cc3c2=O)cc1	inactive: -22.6%
Cc1ccc(-c2nc3ccccn3c2Nc2ccc3c(c2)OCO3)cc1	inactive: -7.46%
N#C/C(=C\c1ccc(-c2cc(Cl)ccc2Cl)o1)C(=O)Nc1cccc2ncccc12	inactive: -28.6%
Cc1cccc(CN2C(=O)c3ccccc3S(=O)(=O)c3ccc(C(=O)NCCC4=CCCCC4)cc32)c1	inactive: -6.03%
COc1ccc(Cl)cc1NC(=O)c1c(NCc2ccc(C)o2)sc2c1CCCCC2	inactive: 27.8%
Cc1ccc(Nc2c(-c3cccs3)nc3nc(C)cc(C)n23)cc1	inactive: -6.24%
CCC(C(=O)Nc1cc(Cl)ccc1OC)n1nc(-c2ccccc2)ccc1=O (centres undefined)	inactive: -8.36%

Compound	activity, negative = inhibition
COc1ccc(C(=O)NCC(c2cccnc2)N2CCc3ccccc32)cc1 (centres undefined)	inactive: 1.56%
CN(Cc1ccccc1)C(=O)c1ccc(CSc2nc3cccnc3n2Cc2ccccc2)cc1	inactive: -23.7%
Cc1ccc2c(c1)-c1c(cnn1CC(=O)N1CCN(c3cccc(C(F)(F)F)c3)CC1)CO2	inactive: -13.5%
Cc1ccc(C)c(N2CCN(CCCNc3ncnc4onc(-c5ccc(Cl)cc5)c34)CC2)c1	inactive: -2.73%
Cc1cccc(-n2ncc(C(=O)NCc3ccc4c(c3)OCO4)c2C2CCN(C(=O)OC(C)(C)C)CC2)c1	inactive: -11%
Cc1ccc(N2C(=O)CSC23C(=O)N(CC(=O)Nc2ccc(C(C)C)cc2)c2ccccc23)cc1C (centres undefined)	inactive: -3.35%
COc1ccc(NC(=O)c2c(NC(=O)c3ccc(Br)cc3)sc3c2CCCC3)cc1	inactive: 12.5%
CCCCN1C(C(=O)c2ccccc2)=C(OC(C)=O)c2ccccc2S1(=O)=O	inactive: 1.35%
COc1ccc(C)cc1N(C)C(=O)c1c2c(nc3ccccc13)C(=O)N(C1CCCCC1)C2	inactive: -15.8%
Cc1c(NC(=O)C(C)(C)Oc2ccc(Cl)cc2)cccc1-c1nc2ncccc2o1	inactive: -8.2%
O=C(Nc1ccc(F)cc1F)c1ccc2c(O)c(S(=O)(=O)c3ccc(Cl)cc3)c(=O)[nH]c2c1	inactive: -25.6%
Cc1ccccc1Cc1c(C)nc2nc(SCC(=O)NCCc3ccc(Cl)cc3)nn2c1C	inactive: -17.9%
COc1ccc(CNCCC(c2ccccc2)c2ccc3c(c2)OCO3)cc1 (centres undefined)	inactive: -14.1%
CCC1CCCCN1C(=O)CSc1nc2c([nH]c3ccccc32)c(=O)n1-c1cccc(OC)c1 (centres undefined)	inactive: -12.2%
CCn1cc(C(=O)NCCCN2CCC(C)CC2)c(=O)c2cc(S(=O)(=O)N(C)C3CCCCC3)ccc21	inactive: -5.33%
Cc1cccc(-c2nc3c(cnn3-c3ccccc3)c(=O)n2-c2cccc(Cl)c2)c1	inactive: -16.3%
CC(C)(C)OC(=O)N1CCC(c2c(C(=O)Nc3ccc4c(c3)OCCO4)cnn2-c2ccc(F)cc2)CC1	inactive: -8.55%
COc1ccc(-c2cc(C(=O)Oc3ccccc3)c3cc(C)ccc3n2)cc1	inactive: 6.53%
O=C(c1noc2c1CCCCC2)N1CCN(c2ccc(Cl)cc2)CC1	inactive: -0.744%
Cn1c(=O)c2c(-c3ccc(Br)cc3)n(CCc3ccccc3)cc2n(C)c1=O	inactive: -16.2%
CCc1ccc(OCC(=O)N(Cc2ccco2)Cc2ccccc2Cl)cc1	inactive: -6.48%
O=C1c2ccccc2C(=O)C1(c1ccccc1)N1CCN(c2cccc(C(F)(F)F)c2)CC1	inactive: -4.48%
